Experimental data: a collection of fitness landscapes (doi:10.1126/science.1257360)
The other results are listed elsewhere or left out.

B1: PhoQ; a variant is named by its letters at X, in order, P23837 (parent)
chain: MKKLLRLFFPLSLRVRFLLATAAVVLVLSLAYGMVALIGYSVSFDKTTFRLLRGESNLFYTLAKWENNKLHVELPENIDKQSPTMTLIYDENGQLLWAQRDVPWLMKMIQPDWLKSNGFHEIEADVNDTSLLLSGDHSIQQQLQEVREDDDDAEMTHSVAVNVYPATSRMPKLTIVVVDTIPVELKSSYMVWSWFIYVLSANLLLVIPLLWVAAWWSLRPIEALAKEVRELEEHNRELLNPATTRELTSLVRNLNRLLKSERERYDKYRTTLTDLTHSLKTPLXXLQXXLRSLRSEKMSVSDAEPVMLEQISRISQQIGYYLHRASMRGGTLLSRELHPVAPLLDNLTSALNKVYQRKGVNISLDISPEISFVGEQNDFVEVMGNVLDNACKYCLEFVEISARQTDEHLYIVVEDDGPGIPLSKREVIFDRGQRVDTLRPGQGVGLAVAREITEQYEGKIVAGESMLGGARMEVIFGRQHSAPKDE

Variants of: B1
Assay: enrichment ratio after two sorts for PhoP signalling (ratio (wild type AVST 3.29)); higher = more functional
Details: with PhoP (E. coli)

Variant | enrichment ratio
FNQD | ≤ 0.25
ERCA | ≤ 0.25
KARY | ≤ 0.25
DIWM | ≤ 0.25
QHST | ≤ 0.25
WKTR | ≤ 0.25
IILD | ≤ 0.25
NPMC | ≤ 0.25
HQCI | ≤ 0.25
GCEW | ≤ 0.25
IQQE | ≤ 0.25
CVSY | ≤ 0.25
MVLP | ≤ 0.25
VTNC | ≤ 0.25
NDGV | ≤ 0.25
KRIQ | ≤ 0.25
PCVC | ≤ 0.25
EDCN | ≤ 0.25
GSFA | ≤ 0.25
DNTM | ≤ 0.25
HENQ | ≤ 0.25
RQEL | ≤ 0.25
VNEI | ≤ 0.25
YYYR | ≤ 0.25

Variant | enrichment ratio
SHCA | 2.47
FNLI | 3.91
NVSF | ≤ 0.25
LKAE | ≤ 0.25
VSII | ≤ 0.25
FMWR | ≤ 0.25
HYFF | ≤ 0.25
SNYK | ≤ 0.25
ALSA | 1.32
IWKR | ≤ 0.25
VGQT | ≤ 0.25
HSPS | ≤ 0.25
AGIG | 9.23
CCIR | ≤ 0.25
HGLP | ≤ 0.25
DWSY | ≤ 0.25
VSQR | ≤ 0.25
QICF | ≤ 0.25
GRRM | ≤ 0.25
IWMY | ≤ 0.25
FWWA | ≤ 0.25
TEPH | ≤ 0.25
YERQ | ≤ 0.25
VGSQ | ≤ 0.25

Variant | enrichment ratio
TGGH | 9.94
IWWT | ≤ 0.25
HHHQ | ≤ 0.25
WFEQ | ≤ 0.25
VNIR | ≤ 0.25
INTV | ≤ 0.25
VEHM | ≤ 0.25
NVFH | ≤ 0.25
RWTC | ≤ 0.25
DFGP | ≤ 0.25
SFKQ | ≤ 0.25
PLGR | ≤ 0.25
KKAC | ≤ 0.25
YEWP | ≤ 0.25
FERP | ≤ 0.25
HDYK | ≤ 0.25
QQCI | ≤ 0.25
EKTN | ≤ 0.25
YPMR | ≤ 0.25
RLMQ | ≤ 0.25
EEGA | ≤ 0.25
YLKN | ≤ 0.25
MAMI | 8.98
LHSI | ≤ 0.25

Variant | enrichment ratio
YMGK | ≤ 0.25
MSSP | ≤ 0.25
SNIN | 0.491
SYKI | ≤ 0.25
KEHI | ≤ 0.25
DIRW | ≤ 0.25
KIMH | ≤ 0.25
EIEY | ≤ 0.25
ARNV | ≤ 0.25
KEVL | ≤ 0.25
YHDR | ≤ 0.25
NIMS | ≤ 0.25
SGKN | ≤ 0.25
DTKC | ≤ 0.25
LNRQ | ≤ 0.25
NVGS | ≤ 0.25
LYFF | ≤ 0.25
RNQM | ≤ 0.25
WFMK | ≤ 0.25
MIQR | ≤ 0.25
TLFW | ≤ 0.25
KTQS | ≤ 0.25
LWQF | ≤ 0.25
CMSC | 39.5

Variant | enrichment ratio
KDIN | ≤ 0.25
GTSM | 10.6
FSKM | ≤ 0.25
IDKC | ≤ 0.25
VCDY | ≤ 0.25
AHML | 4.34
TTLF | 4.92
KVFN | ≤ 0.25
LYDD | ≤ 0.25
QIYI | 5.43
KNEL | ≤ 0.25
SAEH | ≤ 0.25
NTVV | ≤ 0.25
PSLQ | ≤ 0.25
PEVS | ≤ 0.25
WQSF | ≤ 0.25
EGKL | ≤ 0.25
SELK | 7.11
RPIA | ≤ 0.25
TNWV | ≤ 0.25
GWTY | ≤ 0.25
LVYF | ≤ 0.25
DLPV | ≤ 0.25
SMML | 14.5

Variant | enrichment ratio
GEPR | ≤ 0.25
SHND | ≤ 0.25
MTFI | 1.99
NSTC | ≤ 0.25
VQWC | ≤ 0.25
YKNW | ≤ 0.25
VHMY | ≤ 0.25
LTEF | ≤ 0.25
AFEY | ≤ 0.25
GTNQ | ≤ 0.25
DNDW | ≤ 0.25
QHVS | ≤ 0.25
NWKR | ≤ 0.25
NWMH | ≤ 0.25
IWDR | ≤ 0.25
SCSC | 9.53
TWLF | ≤ 0.25
AKQE | ≤ 0.25
RLVK | ≤ 0.25
NEKY | ≤ 0.25
RMGL | ≤ 0.25
PTPM | ≤ 0.25
EPFE | ≤ 0.25
QSWS | 2.8

Variant | enrichment ratio
TYNY | ≤ 0.25
ATAL | 4.51
MASN | 0.887
FSPW | ≤ 0.25
MFAE | ≤ 0.25
KMHR | ≤ 0.25
LHNA | ≤ 0.25
LSVE | ≤ 0.25
RCVC | ≤ 0.25
NTFY | ≤ 0.25
QPSV | ≤ 0.25
THLA | 6.39
QRQF | ≤ 0.25
NIGT | ≤ 0.25
RPDC | ≤ 0.25
YDLI | ≤ 0.25
HPFP | ≤ 0.25
SNMQ | 9.49
DSFT | ≤ 0.25
MVYY | ≤ 0.25
TIFR | ≤ 0.25
VLYH | ≤ 0.25
FMII | ≤ 0.25
QGWG | 7.39

Variant | enrichment ratio
KMMS | ≤ 0.25
SWKA | ≤ 0.25
PQGM | ≤ 0.25
VWKL | ≤ 0.25
QRWA | ≤ 0.25
KPCI | ≤ 0.25
LSWR | ≤ 0.25
YCKM | ≤ 0.25
SAGS | 3.14
AWSP | 1.37
EMYK | ≤ 0.25
NKTT | ≤ 0.25
GGYA | ≤ 0.25
LDGM | ≤ 0.25
RFPA | ≤ 0.25
PCTY | ≤ 0.25
MQSH | ≤ 0.25
RTQV | ≤ 0.25
TQAS | 6.39
TDRA | ≤ 0.25
GTLN | 4.21
FQWS | ≤ 0.25
MMAQ | 5.74
VAAF | ≤ 0.25

Variant | enrichment ratio
MILW | ≤ 0.25
IYHD | ≤ 0.25
EMVW | ≤ 0.25
GIAC | 11.8
YQVC | 0.339
YRIA | ≤ 0.25
IGDV | ≤ 0.25
QMGQ | ≤ 0.25
RSLM | ≤ 0.25
TIWA | ≤ 0.25
TCIC | ≤ 0.25
VDRG | ≤ 0.25
RQGA | ≤ 0.25
MNYS | ≤ 0.25
DTIF | ≤ 0.25
LHCR | ≤ 0.25
HFFR | ≤ 0.25
PQGN | ≤ 0.25
KMPA | ≤ 0.25
MNVE | ≤ 0.25
REKI | ≤ 0.25
NGCA | ≤ 0.25
DHYV | ≤ 0.25
DGDL | ≤ 0.25

Variant | enrichment ratio
EMLP | ≤ 0.25
TSTD | ≤ 0.25
WKWS | ≤ 0.25
AQMA | 0.83
MGQV | ≤ 0.25
MKHD | ≤ 0.25
QDVL | ≤ 0.25
QDHE | ≤ 0.25
GLYD | ≤ 0.25
HHEW | ≤ 0.25
GVVR | ≤ 0.25
ANDD | ≤ 0.25
KNWN | ≤ 0.25
KHWN | ≤ 0.25
MCAF | 32.1
KSGE | ≤ 0.25
SGVA | 19
PDMV | ≤ 0.25
AKPL | ≤ 0.25
SEEC | 15.4
WEPL | ≤ 0.25
EQHW | ≤ 0.25
IAQN | ≤ 0.25
QVIN | ≤ 0.25

Variant | enrichment ratio
ACPP | ≤ 0.25
RHVR | ≤ 0.25
TCKN | ≤ 0.25
ACPC | ≤ 0.25
NDHL | ≤ 0.25
TIWH | ≤ 0.25
RRRW | ≤ 0.25
SINK | 1.25
YGTI | 1.34
VKIW | ≤ 0.25
VSLI | 14
YSKE | ≤ 0.25
LKVH | ≤ 0.25
FEYK | ≤ 0.25
YDVQ | ≤ 0.25
WRRF | ≤ 0.25
YDFY | ≤ 0.25
NSFD | ≤ 0.25
DMCG | ≤ 0.25
ICGA | ≤ 0.25
EMYP | ≤ 0.25
EVEW | ≤ 0.25
GTTL | 11.7
QGHK | ≤ 0.25

Variant | enrichment ratio
WPVV | ≤ 0.25
RHFA | ≤ 0.25
QHSR | ≤ 0.25
GHCV | ≤ 0.25
IEPF | ≤ 0.25
KGLT | ≤ 0.25
WWTC | ≤ 0.25
VGCY | 2.46
NNAP | ≤ 0.25
RKIP | ≤ 0.25
WENT | ≤ 0.25
YTRE | ≤ 0.25
SYGY | ≤ 0.25
WCMQ | ≤ 0.25
INLE | ≤ 0.25
DAYQ | ≤ 0.25
YFAE | ≤ 0.25
GDHG | ≤ 0.25
LHIG | ≤ 0.25
FFVA | ≤ 0.25
FFKS | ≤ 0.25
GQQS | ≤ 0.25
FQKP | ≤ 0.25
TTCG | 30.3

Variant | enrichment ratio
MNWN | 15.4
GVLD | ≤ 0.25
ETHI | ≤ 0.25
KDMG | ≤ 0.25
FQHY | ≤ 0.25
YQLR | ≤ 0.25
SNML | 15.9
MPVN | ≤ 0.25
DVFT | ≤ 0.25
RCFR | ≤ 0.25
AQQD | ≤ 0.25
TERH | ≤ 0.25
IQIF | ≤ 0.25
TKVN | 2.64
PSPS | ≤ 0.25
HSFH | ≤ 0.25
GIFP | ≤ 0.25
HPRV | ≤ 0.25
